Changes are numbered by the printed parent chain.
What was measured:
[1] = system: total myostatin in serum; assay: Circulating total myostatin in serum (acidification ELISA), dexamethasone model; format: in vivo, mouse; details: as compared to apitegromab
Description: Briefly, serum samples were acidified at low pH (e.g., pH ˜2.5) to dissociate the bound antibody from the immune complex and to convert all myostatin in the sample to the active form of growth factor (i.e., mature myostatin). Samples were then neutralized and assayed for the presence of mature myostatin on ELISA plates coated with anti-mature myostatin antibodies as capture reagents.

[2] = AC-SINS self-interaction (aggregation behavior); format: physicochemical; details: cutoff shift >5 nm in plasmon wavelength
Procedure: The antibodies were tested for aggregation behavior by affinity capture self-interaction nanoparticle spectroscopy (AC-SINS). Gold nanoparticles were coated with polyclonal antibodies that are specific for human monoclonal antibodies and the monoclonal antibodies are captured by the conjugates. The polyvalency of the monoclonal antibody conjugates amplifies the attractive self-interactions, i.e., aggregation between the adsorbed antibodies. This leads to reduced inter-particle separation distances and is detected by a change in color of the gold colloid solution, which was quantified by a change in the wavelength of maximum absorbance (plasmon wavelength). Plasmon wavelength of 530 nm was used as the reported value for unaggregated gold nanoparticles. Antibodies with a tendency to self-aggregate shift the plasmon wavelength toward the red end of the spectrum. A shift of greater than 5 nm (i.e., >5 nm) in plasmon wavelength was used as the cutoff indicative of self-interacting antibodies.

[3] = system: biotinylated murine pro-myostatin; assay: Biacore 8k SPR binding affinity, murine pro-myostatin; design: species or system mouse
Description: (§1) The Biacore™ 8 k SPR system was utilized to evaluate the binding affinity of myostatin antibodies to biotinylated human, murine, and cyno pro-myostatin. Biotin CAPture kit and sensor chips (Cytiva) were utilized in these experiments to immobilize the various antigens, followed by flowing a range of concentrations of each of the test antibodies.

[4] = system: biotinylated human pro-myostatin; assay: Biacore 8k SPR binding affinity, human pro-myostatin
Description: as §1

B1: Ab132: anti-pro/latent myostatin antibody; CDRs in Tables 2d-f, variable domains Table 3, chains Table 4 (antibody)
heavy: EVQLVESGGGLVQPGGSLRLSCAASGFTFSSYGMSWVRQAPGKGLELVASFTGSGGTYYPDSVKGRFTISRDNAKNSLYLQMNSLRAEDTAVYYCARDLLIRFLEWSHYYGMDVWGQGTTVTVSSASTKGPSVFPLAPCSRSTSESTAALGCLVKDYFPEPVTVSWNSGALTSGVHTFPAVLQSSGLYSLSSVVTVPSSSLGTKTYTCNVDHKPSNTKVDKRV[human IgG4 Fc with S228P (EU numbers) left out]
light: DIVMTQSPLSLPVTPGEPASISCRSSQSLLHSSGHNFLHWYLQKPGQSPQLLIYEVSNRVSGVPDRFSGSGSGTDFTLKISRVEAEDVGVYYCQQQTQYPPTFGGGTKVEIKRTVAAPSVFIFPPSDEQLKSGTASVVCLLNNFYPREAKVQWKVDNALQSGNSQESVTEQDSKDSTYSLSSTLTLSKADYEKHKVYACEVTHQGLSSPVTKSFNRGEC
With B1 as the molecule, how does the “accumulation of total or latent myostatin in serum samples from dosed subjects” value [1] read?
Its value is “little or no accumulation of total myostatin”.

B2: Ab134: anti-pro/latent myostatin antibody; CDRs in Tables 2d-f, variable domains Table 3, chains Table 4 (antibody)
heavy: EVQLVESGGGLVQPGGSLRLSCAASGSAFSSYGMSWVRQAPGKGLELVASINSNGGSTYYPDSVKGRFTISRDNAKNSLYLQMNSLRAEDTAVYYCARDLLVEFLKWSHYYGMDVWGQGTTVTVSSASTKGPSVFPLAPCSRSTSESTAALGCLVKDYFPEPVTVSWNSGALTSGVHTFPAVLQSSGLYSLSSVVTVPSSSLGTKTYTCNVDHKPSNTKVDKRV[human IgG4 Fc with S228P (EU numbers) left out]
light: B1 light with Q94M
Which “aggregation behavior by AC-SINS” value [2] does the source give for B2 here?
The value was “did not display aggregation behavior”.

B3: Ab111: anti-pro/latent myostatin antibody; CDRs in Tables 2d-f, variable domains Table 3, chains Table 4 (antibody)
heavy: QVQLVQSGAEVKKPGASVKVSCKVSGYTFTSNDIHWVRQAPGKGLEWMGGIFPIFGTTIYAQKFQGRVTMTEDTSTDTAYMELSSLKSEDTAVYYCAREGLGYDFDYWGQGTLVTVSSASTKGPSVFPLAPCSRSTSESTAALGCLVKDYFPEPVTVSWNSGALTSGVHTFPAVLQSSGLYSLSSVVTVPSSSLGTKTYTCNVDHKPSNTKVDKRV[human IgG4 Fc with S228P (EU numbers) left out]
light: DIQMTQSPSSVSASVGDRVTITCRASQNIGNWLAWYQQKPGKAPKLLIYSASALQSGVPSRFSGSGSGTDFTLTISSLQPEDFANYYCQQSYGAPMYSFGGGTKVEIKRTVAAPSVFIFPPSDEQLKSGTASVVCLLNNFYPREAKVQWKVDNALQSGNSQESVTEQDSKDSTYSLSSTLTLSKADYEKHKVYACEVTHQGLSSPVTKSFNRGEC
Which “aggregation behavior by AC-SINS” value [2] does the source give for B3 here?
Its value is “displayed aggregation behavior”.

B4: Ab113: anti-pro/latent myostatin antibody; CDRs in Tables 2d-f, variable domains Table 3, chains Table 4 (protein)
heavy chain: QVQLVQSGAEVKKPGASVKVSCKVSGYLLTELSIHWVRQAPGKGLEWMGGIIPSFGTAIYAQKFQGRVTMTEDTSTDTAYMELSSLKSEDTAVYYCAISYSGFDLLPLDKWGQGTLVTVSSASTKGPSVFPLAPCSRSTSESTAALGCLVKDYFPEPVTVSWNSGALTSGVHTFPAVLQSSGLYSLSSVVTVPSSSLGTKTYTCNVDHKPSNTKVDKRV[human IgG4 Fc with S228P (EU numbers) left out]
light chain: DIQMTQSPSSVSASVGDRVTITCRASQHISTWLAWYQQKPGKAPKLLIYYASSLQGGVPSRFSGSGSGTDFTLTISSLQPEDFANYYCLQTYTYPRTFGGGTKVEIKRTVAAPSVFIFPPSDEQLKSGTASVVCLLNNFYPREAKVQWKVDNALQSGNSQESVTEQDSKDSTYSLSSTLTLSKADYEKHKVYACEVTHQGLSSPVTKSFNRGEC
For B4, which “aggregation behavior by AC-SINS” value [2] is on record?
Its value is “displayed aggregation behavior”.

B5: Ab101: anti-pro/latent myostatin antibody; CDRs in Tables 2d-f, variable domains Table 3, chains Table 4 (antibody)
heavy: B2 heavy with E103R, K106E
light: B1 light with Q94M
Which results are given for B5?
aggregation behavior by AC-SINS [2]: did not display aggregation behavior; Ka [3]: 4.34e+06 M⁻¹ s⁻¹; Kd (1/s) [3]: 0.00036 s⁻¹; Ka [4]: 4.37e+06 M⁻¹ s⁻¹; Kd (1/s) [4]: 0.000339 s⁻¹

B6: Ab103: anti-pro/latent myostatin antibody; CDRs in Tables 2d-f, variable domains Table 3, chains Table 4 (antibody)
heavy: B2 heavy with S27Y, A28T, N52T, S53G, N54D, G55A, S57R, L100T, E103R, K106E
light: B1 light with Q94M
For B6, which “aggregation behavior by AC-SINS” value [2] is on record?
The value was “did not display aggregation behavior”.

What about the “Ka” value [3] of the same molecule?
The value was 5.83e+06 M⁻¹ s⁻¹.

And the “Kd (1/s)” value [3]?
Its value is 0.00221 s⁻¹.

What about the “Ka” value [4] of the same molecule?
Its value is 5.78e+06 M⁻¹ s⁻¹.

And the “Kd (1/s)” value [4]?
Its value is 1.51 E−03 1/s.

B7: Ab114: anti-pro/latent myostatin antibody; CDRs in Tables 2d-f, variable domains Table 3, chains Table 4 (antibody)
heavy: QVQLVQSGAEVKKPGASVKVSCKVSGGTFRSYTIHWVRQAPGKGLEWMGGMNPSSGHTIYAQKFQGRVTMTEDTSTDTAYMELSSLKSEDTAVYYCARGLDYGEGYYYYGMDVWGQGTTVTVSSASTKGPSVFPLAPCSRSTSESTAALGCLVKDYFPEPVTVSWNSGALTSGVHTFPAVLQSSGLYSLSSVVTVPSSSLGTKTYTCNVDHKPSNTKVDKRV[human IgG4 Fc with S228P (EU numbers) left out]
light: DIQMTQSPSSVSASVGDRVTITCRASQGISESLAWYQQKPGKAPKLLIYSASSLESGVPSRFSGSGSGTDFTLTISSLQPEDFANYYCQQGYSSPPYTFGGGTKVEIKRTVAAPSVFIFPPSDEQLKSGTASVVCLLNNFYPREAKVQWKVDNALQSGNSQESVTEQDSKDSTYSLSSTLTLSKADYEKHKVYACEVTHQGLSSPVTKSFNRGEC
With B7 as the molecule, how does the “Ka” value [3] read?
The value was 3.31e+06 M⁻¹ s⁻¹.

And the “Kd (1/s)” value [3]?
The value was 0.0208 s⁻¹.

And the “Ka” value [4]?
Its value is 4.23e+06 M⁻¹ s⁻¹.

And the “Kd (1/s)” value [4]?
The value was 0.00735 s⁻¹.

B8: Ab115: anti-pro/latent myostatin antibody; CDRs in Tables 2d-f, variable domains Table 3, chains Table 4 (antibody)
heavy: QVQLVQSGAEVKKPGASVKVSCKVSGYAFTNYNIHWVRQAPGKGLEWMGGINPRTGGTIYAQKFQGRVTMTEDTSTDTAYMELSSLKSEDTAVYYCAKDIYTGVAVAGSGMDYWGQGTLVTVSSASTKGPSVFPLAPCSRSTSESTAALGCLVKDYFPEPVTVSWNSGALTSGVHTFPAVLQSSGLYSLSSVVTVPSSSLGTKTYTCNVDHKPSNTKVDKRV[human IgG4 Fc with S228P (EU numbers) left out]
light: DIQMTQSPSSVSASVGDRVTITCRASQGISTHLAWYQQKPGKAPKLLIYGASNLESGVPSRFSGSGSGTDFTLTISSLQPEDFANYYCQQANSFPWTFGGGTKVEIKRTVAAPSVFIFPPSDEQLKSGTASVVCLLNNFYPREAKVQWKVDNALQSGNSQESVTEQDSKDSTYSLSSTLTLSKADYEKHKVYACEVTHQGLSSPVTKSFNRGEC
With B8 as the molecule, how does the “Ka” value [3] read?
The value was 450000 M⁻¹ s⁻¹.

And the “Kd (1/s)” value [3]?
The value was 0.00137 s⁻¹.

And the “Ka” value [4]?
Its value is 406000 M⁻¹ s⁻¹.

What about the “Kd (1/s)” value [4] of the same molecule?
The value was 0.00123 s⁻¹.

B9: Ab129: anti-pro/latent myostatin antibody; CDRs in Tables 2d-f, variable domains Table 3, chains Table 4 (antibody)
heavy: QVQLVQSGAEVKKPGASVKVSCKVSGFNYPRSAIHWVRQAPGKGLEWMGGINPSGEATIYAQKFQGRVTMTEDTSTDTAYMELSSLKSEDTAVYYCARDSSPQWLVTAGVYFYGMDVWGQGTTVTVSSASTKGPSVFPLAPCSRSTSESTAALGCLVKDYFPEPVTVSWNSGALTSGVHTFPAVLQSSGLYSLSSVVTVPSSSLGTKTYTCNVDHKPSNTKVDKRV[human IgG4 Fc with S228P (EU numbers) left out]
light: B8 light with G28S, T31N, H32W, G50H, N53T, E55Q, A91Y, N92S, F94T
Which results are given for B9?
Ka [3]: 117000 M⁻¹ s⁻¹; Kd (1/s) [3]: 0.000496 s⁻¹; Ka [4]: 140000 M⁻¹ s⁻¹; Kd (1/s) [4]: 0.000307 s⁻¹

— patent publication US12338279B2, “Selective and potent inhibitory antibodies of myostatin activation” (SCHOLAR ROCK, INC., priority 2022, dated 2025)
